The whole screen tested about 1,200 compounds, of which about 55 (5%) were called active. Not shown: some 15% with an inconclusive outcome. The call rests on the fitted dose curve; in most records, active means well fitted inhibition curve with a large enough effect; inconclusive means small, poorly fitted or top-dose-only effect; inactive means no such curve, though single readings can be large or run the other way. The list shows a part of the results.
Assay: qHTS Assay to Find Inhibitors of Chronic Active B-Cell Receptor Signaling: Hit Validation in Renilla Reporter Assay; further: nearly all actives have a fitted effect of over 70% in size
Details: TMD8 IkB-Renilla luciferase reporter, NF-kB signaling; series mostly up to 57.5 µM; activity change, negative = inhibition: at the top concentration
In short: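 Dual-Glo luminescence read-out of constitutively expressed IkB-Photinus/Renilla luciferase reporters in ABC-DLBCL lines, used to retest primary hits; reporter enzymes differ from the click beetle luciferases used in the primary screen.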
On the % scale 0 is the no-effect control and ±100 the full control effect; potency means the concentration at half of the fitted maximal effect.

**Q.** For `O=C(N1CCN(c2ccccn2)CC1)N1c2ccccc2Sc2ccccc21`, which “activity change, negative = inhibition” value is on record?
**A.** inactive: 0.521%

**Q.** With `Cc1c(C(=O)N/N=C/c2ccc(Cl)cc2)[nH]c2ccc(Cl)cc12` as the compound, how does the “activity change, negative = inhibition” value read?
**A.** inactive: -78.9%

**Q.** For `COc1ccc2c(C#CCCO)c(-c3ccc(S(C)(=O)=O)cc3)sc2c1`, which “activity change, negative = inhibition” value is on record?
**A.** inactive: -13.8%

**Q.** For `COc1cc(C(=O)N/N=C(\Cc2ncc[nH]2)c2ccccc2)cc(OC)c1OC`, which “activity change, negative = inhibition” value is on record?
**A.** inactive: 3.02%

**Q.** For `N#Cc1c(NC(=O)CSc2ncn[nH]2)sc2c1CCCC2`, which “activity change, negative = inhibition” value is on record?
**A.** inactive: -19.3%

**Q.** With `COc1ccc(C(=O)c2cc([N+](=O)[O-])ccc2N2CCOCC2)cc1` as the compound, how does the “activity change, negative = inhibition” value read?
**A.** inactive: -4.12%

**Q.** With `Cc1cccc(NC(=S)N=Nc2c(O)n(C)c3ccc(S(=O)(=O)N4CCOCC4)cc23)c1` as the compound, how does the “activity change, negative = inhibition” value read?
**A.** inactive: -23.4%

**Q.** With `C[C@H]1C[C@@H]2[C@H]([C@@H](O)C[C@@]3(C)[C@H]2CC[C@]3(O)C(=O)CO)[C@@]2(C)C=CC(=O)C=C12` as the compound, how does the “activity change, negative = inhibition” value read?
**A.** inactive: 2.44%

**Q.** With `CCOc1cc(C(=O)N/N=C/C2CC=CCC2)cc(OCC)c1OCC` (stereo unspecified) as the compound, how does the “activity change, negative = inhibition” value read?
**A.** inactive: -2.2%

**Q.** With `CC(/C=C/c1ccccc1)=N\NC(N)=S` as the compound, how does the “activity change, negative = inhibition” value read?
**A.** inactive: -1.62%

**Q.** Which “activity change, negative = inhibition” value does the source give for `COc1cccc(N2CC(O)=C(c3nc4ccccc4s3)C2=N)c1` here?
**A.** inactive: 2.59%

**Q.** For `CCOC(=O)N1CCC(NC(=O)CS(=O)(=O)Cc2nc(-c3ccccc3C)oc2C)CC1`, which “activity change, negative = inhibition” value is on record?
**A.** inactive: -5.96%

**Q.** With `COc1ccc(/C=N/NC(=O)CCn2cnc(-c3ccccc3)c2-c2ccccc2)cc1OC` as the compound, how does the “activity change, negative = inhibition” value read?
**A.** inactive: -24.2%

**Q.** For `COc1ccc2c(c1)OC(=O)CC2c1cc(OC)c(OC)c(OC)c1` (stereo unspecified), which “activity change, negative = inhibition” value is on record?
**A.** inactive: -10.4%

**Q.** With `CCN1C(=O)c2cccc3c(S(=O)(=O)Nc4ccccc4O)ccc1c23` as the compound, how does the “activity change, negative = inhibition” value read?
**A.** inactive: -19%

**Q.** Which “activity change, negative = inhibition” value does the source give for `CCN(CC(=O)Nc1ccccc1SC)Cc1nc2ccccc2c(=O)[nH]1` here?
**A.** inactive: 1.19%

**Q.** For `CCOC(=O)C1=C(C)c2ccccc2N(C(=O)OC)C1(C)C(=O)OCC` (stereo unspecified), which “activity change, negative = inhibition” value is on record?
**A.** inactive: 0.0176%

**Q.** With `COc1cc(C(=O)c2cocc2C(=O)c2ccc3c(c2)OCO3)cc(OC)c1OC` as the compound, how does the “activity change, negative = inhibition” value read?
**A.** inactive: -15.6%

**Q.** For `Clc1cncc(Cl)c1N/N=C/c1ccncc1`, which “activity change, negative = inhibition” value is on record?
**A.** inactive: -2.19%

**Q.** For `O=C(N/N=C/c1cccs1)c1cc(-c2ccncc2)nc2ccccc12`, which “activity change, negative = inhibition” value is on record?
**A.** inactive: -14.9%

**Q.** With `O=C(c1ccc(CS(=O)c2ccccc2Cl)o1)N1CCN(c2ccccc2)CC1` (stereo unspecified) as the compound, how does the “activity change, negative = inhibition” value read?
**A.** inactive: -1.35%

**Q.** For `Oc1ccccc1/C=N/Nc1ccnc(SCc2ccccc2)n1`, which “activity change, negative = inhibition” value is on record?
**A.** inactive: -2.7%

**Q.** With `CN(C)c1ccc(C(=O)c2ccc(N(C)C)c3ccccc23)cc1` as the compound, how does the “activity change, negative = inhibition” value read?
**A.** inactive: 26.2%

**Q.** With `N#C/C(=C\c1cn(Cc2ccc(F)cc2)c2ccccc12)C(=O)NCc1ccco1` as the compound, how does the “activity change, negative = inhibition” value read?
**A.** inactive: -24.2%

**Q.** Which “activity change, negative = inhibition” value does the source give for `O=C(NCCc1ccccc1)c1coc(=O)c(Br)c1` here?
**A.** inactive: -91.9%

**Q.** Which “activity change, negative = inhibition” value does the source give for `COc1ccc(-c2cc(C(=O)N/N=C(\C)c3cccnc3)c3ccccc3n2)cc1` here?
**A.** inactive: -1.73%

**Q.** With `CCCNc1nc(-c2ccccc2)c(C(=O)OCC)cc1C#N` as the compound, how does the “activity change, negative = inhibition” value read?
**A.** inactive: 0.302%

**Q.** For `CC(=O)Nc1ccc(S(=O)(=O)N2c3ccccc3C(C)=CC2(C)C)cc1`, which “activity change, negative = inhibition” value is on record?
**A.** inactive: 4.2%

**Q.** For `COc1ccccc1N1CCN(C(=O)C2c3ccccc3Oc3ccccc32)CC1`, which “activity change, negative = inhibition” value is on record?
**A.** inactive: 1.62%

**Q.** Which “activity change, negative = inhibition” value does the source give for `O=C(Oc1ccc2ccc(OC(=O)N3CCOCC3)cc2c1)N1CCOCC1` here?
**A.** inactive: 5.12%

**Q.** For `O=[N+]([O-])c1cc(/C=N/O)ccc1Sc1ccccc1`, which “activity change, negative = inhibition” value is on record?
**A.** inactive: 3.47%

**Q.** Which “activity change, negative = inhibition” value does the source give for `COc1ccc(N2CC(C(=O)N3CCC(c4nc5ccccc5[nH]4)CC3)CC2=O)cc1` (stereo unspecified) here?
**A.** inactive: 0.0753%

**Q.** With `COc1ccc(C2=Nn3c(nnc3-c3ccccc3OC)SC2)cc1OC` as the compound, how does the “activity change, negative = inhibition” value read?
**A.** inactive: -15.3%

**Q.** For `COc1ccc(/C=C/C(=O)c2cc(F)ccc2OC(=O)c2ccccc2OC)cc1OC`, which Potency is on record?
**A.** active: 6.75 µM

**Q.** With `COC(=O)COc1cccc2c(=O)n(CC(=O)NCc3ccccc3)ccc12` as the compound, how does the “activity change, negative = inhibition” value read?
**A.** inactive: 3.58%

**Q.** For `CCOC(=O)c1ccc(NC(=S)NNC(C)(C)C)cc1`, which “activity change, negative = inhibition” value is on record?
**A.** inactive: 16.3%

**Q.** With `O=c1cnnc(N/N=C/C2CC=CCC2)[nH]1` (stereo unspecified) as the compound, how does the “activity change, negative = inhibition” value read?
**A.** inactive: 1.82%

**Q.** For `CN(C)/C=N/c1sc2c(c1C#N)CCCC2`, which “activity change, negative = inhibition” value is on record?
**A.** inactive: 0.366%

**Q.** For `COc1ccc(NC(=O)Cn2nnc(-c3ccccc3NS(=O)(=O)c3ccc(OC)cc3)n2)cc1`, which “activity change, negative = inhibition” value is on record?
**A.** inactive: 15.7%

**Q.** Which “activity change, negative = inhibition” value does the source give for `CCOC(=O)c1cnc(Nc2nc3ccccc3o2)nc1CSC(=S)N(CC)CC` here?
**A.** inactive: -9.25%

**Q.** For `CCOc1ccc(Cl)cc1C1=CC(=O)C[C@H](c2ccc(OC)cc2)C1`, which “activity change, negative = inhibition” value is on record?
**A.** inactive: 7.4%

**Q.** With `C[C@@H]1C[C@H]2[C@@H]3C[C@H](F)C4=CC(=O)C=C[C@]4(C)[C@@]3(F)[C@@H](O)C[C@]2(C)[C@@]1(O)C(=O)CO` as the compound, how does the “activity change, negative = inhibition” value read?
**A.** inactive: 4.85%

**Q.** Which “activity change, negative = inhibition” value does the source give for `COc1ccc(CCNC(=O)Cn2c(=O)cnc3ccccc32)cc1` here?
**A.** inactive: -19.8%

**Q.** With `CCN(CC)c1ccc(NC(=O)CN2CCN(CC(=O)Nc3ccccc3F)CC2)cc1` as the compound, how does the “activity change, negative = inhibition” value read?
**A.** inactive: -0.989%

**Q.** Which “activity change, negative = inhibition” value does the source give for `CCOC(=O)COc1cccc2c(=O)n(CC(=O)NCc3ccccc3)ccc12` here?
**A.** inactive: 4.41%

**Q.** With `Cc1cccc(C)c1NC(=O)CNC(=O)CNC(=O)Cc1cccc2ccccc12` as the compound, how does the “activity change, negative = inhibition” value read?
**A.** inactive: -7.19%

**Q.** With `COc1cc2c(cc1OC)C(c1ccc(OC)c(OC)c1OC)CC(=O)N2` (stereo unspecified) as the compound, how does the “activity change, negative = inhibition” value read?
**A.** inactive: 0.463%

**Q.** Which “activity change, negative = inhibition” value does the source give for `C/C(=N\N1C(=O)c2ccccc2NC1c1ccco1)c1ccccc1O` (stereo unspecified) here?
**A.** inactive: -0.09%

**Q.** For `CCOc1cc(-c2nnc(SCC(=O)NCc3ccccc3)nc2-c2ccc(OC)c(OCC)c2)ccc1OC`, which “activity change, negative = inhibition” value is on record?
**A.** inactive: 2.52%

**Q.** With `COC(=O)c1ccc(C)c(NS(=O)(=O)c2ccc(OC)cc2)c1` as the compound, how does the “activity change, negative = inhibition” value read?
**A.** inactive: 32.4%

**Q.** Which “activity change, negative = inhibition” value does the source give for `Oc1[nH]c2ccc(Br)cc2c1N=NC(=S)Nc1ccc(F)cc1` here?
**A.** inactive: -26.4%
